Experimental data taken from the supplement of paper PMC6089552.
The whole screen tested about 3,200 compounds, of which about 300 (9.4%) showed activity. The entries are a selection whose mix differs from that of the whole data set.

System: A673/TR/shEF
Assay: cell viability (LOESS-normalised, relative to median of negative controls) (log2 ratio); higher = more viable cells (less compound effect), active = hit call of the paper (over 3 MAD below the median)
Details: treatment time: 72 h
Method in brief: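 Doxycycline, present or absent from 24 h before compounds, was used to induce EWS-FLI1 shRNA knockdown in A673/TR/shEF Ewing sarcoma cells at 1,500 per well in 384-well plates. Cells then received library compounds at two or more concentrations, or DMSO controls, for three days. Viability was measured by CellTiter-Glo luminescence on an Envision reader, and per-plate LOESS correction, division by the negative-control median and log2 transformation followed.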

[1] = 0.25 µM, library screen: screen1, EWS-FLI1 expression: high (no doxycycline)
[2] = 0.25 µM, library screen: screen1, EWS-FLI1 expression: low (doxycycline-induced shRNA knockdown)
[3] = 2.5 µM, library screen: screen1, EWS-FLI1 expression: high (no doxycycline)
[4] = 2.5 µM, library screen: screen1, EWS-FLI1 expression: low (doxycycline-induced shRNA knockdown)
[5] = 0.25 µM, library screen: screen2, EWS-FLI1 expression: high (no doxycycline)
[6] = 0.25 µM, library screen: screen2, EWS-FLI1 expression: low (doxycycline-induced shRNA knockdown)
[7] = 2.5 µM, library screen: screen2, EWS-FLI1 expression: high (no doxycycline)
[8] = 2.5 µM, library screen: screen2, EWS-FLI1 expression: low (doxycycline-induced shRNA knockdown)
[9] = 0.103 µM, library screen: screen3, EWS-FLI1 expression: high (no doxycycline)
[10] = 0.103 µM, library screen: screen3, EWS-FLI1 expression: low (doxycycline-induced shRNA knockdown)
[11] = 0.308 µM, library screen: screen3, EWS-FLI1 expression: high (no doxycycline)
[12] = 0.308 µM, library screen: screen3, EWS-FLI1 expression: low (doxycycline-induced shRNA knockdown)
[13] = 0.926 µM, library screen: screen3, EWS-FLI1 expression: high (no doxycycline)
[14] = 0.926 µM, library screen: screen3, EWS-FLI1 expression: low (doxycycline-induced shRNA knockdown)
[15] = 2.8 µM, library screen: screen3, EWS-FLI1 expression: high (no doxycycline)
[16] = 2.8 µM, library screen: screen3, EWS-FLI1 expression: low (doxycycline-induced shRNA knockdown)
[17] = 8.3 µM, library screen: screen3, EWS-FLI1 expression: high (no doxycycline)
[18] = 8.3 µM, library screen: screen3, EWS-FLI1 expression: low (doxycycline-induced shRNA knockdown)
[19] = 25 µM, library screen: screen3, EWS-FLI1 expression: high (no doxycycline)
[20] = 25 µM, library screen: screen3, EWS-FLI1 expression: low (doxycycline-induced shRNA knockdown)

Measured: cell viability (log2)

Cc1c(NC(=O)c2cccnc2)c(=O)n(-c2ccccc2)n1C
inactive: [1] 0.176 | [2] 0.162 | [3] 0.224 | [4] 0.166

O=C(/C=C/c1ccc(O)cc1)c1ccc(O)cc1O
inactive: [1] 0.13 | [2] 0.0652 | [5] 0.186 | [6] 0.167 | [3] 0.0781 | [4] 0.0251 | [7] 0.141 | [8] 0.124

CS(=O)(=O)OCCCCOS(C)(=O)=O
inactive: 0.025 µM, library screen: screen2, EWS-FLI1 expression: high (no doxycycline) 0.215 | 0.025 µM, library screen: screen2, EWS-FLI1 expression: low (doxycycline-induced shRNA knockdown) 0.0295 | [9] 0.0761 | [10] -0.00186 | [1] 0.149 | [2] 0.0863 | [5] 0.133 | [6] 0.0683 | [11] 0.0418 | [12] 0.169 | [13] 0.0631 | [14] 0.108 | [3] 0.124 | [4] 0.173 | [7] 0.139 | [8] 0.0379 | [15] 0.0831 | [16] 0.124 | [17] 0.0681 | [18] 0.161 | 25 µM, library screen: screen2, EWS-FLI1 expression: high (no doxycycline) 0.128 | 25 µM, library screen: screen2, EWS-FLI1 expression: low (doxycycline-induced shRNA knockdown) 0.0314 | [19] 0.0754 | [20] 0.171

Cc1nnc(C(C)C)n1C1C[C@H]2CC[C@@H](C1)N2CC[C@H](NC(=O)C1CCC(F)(F)CC1)c1ccccc1 (some centres not stated)
inactive: [9] 0.00773 | [10] 0.0537 | [11] 0.179 | [12] 0.0864 | [13] 0.11 | [14] 0.0142 | [15] 0.152 | [16] 0.0241 | [17] 0.00455 | [18] 0.0886 | [19] 0.0767 | [20] 0.0769

CN1C(=O)CC[C@H]1c1cccnc1
inactive: [1] 0.102 | [2] 0.0122 | [3] 0.0954 | [4] -0.0438

O=C(/C=C/c1ccc(O)cc1O)c1ccccc1
inactive: [1] 0.0477 | [2] 0.0515 | [3] 0.136 | [4] 0.0296

Cc1cc(O)c(C=O)c(O)c1C(=O)O
inactive: [1] 0.0431 | [2] 0.0767 | [3] 0.0238 | [4] 0.158

CC[C@@H]1C(=O)OC[C@@H]1Cc1cncn1C
inactive: [1] 0.0873 | [2] 0.0148 | [5] 0.145 | [6] 0.0737 | [3] 0.0768 | [4] 0.179 | [7] 0.0821 | [8] 0.0794

COc1cc(OC)c2c(c1Cl)O[C@@]1(C(=O)CC(=O)C[C@H]1C)C2=O
inactive: [1] 0.0893 | [2] 0.0968 | [3] 0.098 | [4] 0.197
